A structure can be active in one record and inactive in another.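 Each cell line was grown in a 96-well plate and treated with one concentration of compound for 48 hours. Values below 10 were considered active.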 Some entries of the source have several records that differ or are many. This list holds those alone. An entry can have further records. This drug was run again and again over the years, at the concentration stated with the values; each value is one run. Additions like (4×) stand for listed records that agree.
Tests used:
[1] = tested on: NCI-H322M lung; experiment: NCI-60 one-dose screen, 48 h (100 = growth as untreated, 0 = no growth, -100 = all killed); conditions: 25 µM
[2] = tested on: HOP-62 NSCLC; experiment: as above; conditions: 0.25 µM

`COc1cccc2c1C(=O)c1c(O)c3c(c(O)c1C2=O)C[C@@](O)(C(=O)CO)C[C@@H]3OC1CC(N)C(O)C(C)O1` (stereo not given in full) was tested, and the growth ([1]; runs of 1995) was “active: -16.7 (2×), -23, -4.13, -19.8, 1.06, -36.4, -25 (2×), -58.1, -34.2, -6.14, -39.7, -3.41, -26.2, -20.4, -9.33, -18.2, -18.4, -26.3, -34.9, -4.65, -56.1, -38.4, -41.5, -39, -28.7, -24.8, -40.3, -8.81, -35, -51.9, -48.1, -29, -28.8, 8.29, -35.3, -37.3, -45.1, -7.82%”, the growth ([1]; runs of 1996) was “active: -32.8, -33.6, -36.2, 4.31, -35, -18.4, 2.45, -24.5, 0.627, 2.89, -31.2, -31, 7.66, -20.2, -24.6, -25.5, -2.72, -15.9, -14.9, -45.3, -49.6, -2.5, 0.839, -23.9, -5.54, -23, -12.7, -41.5, -30, -20 (2×), -8.13, -39.3, -17.2, -22, -37.7, -31.9, -10, -18.8, -6.94, -11.9, -20.4, -21.7, -46.4, -33.9, -44.6, -11.7, -17.4, -25.1, -16.5, -9.17, -60.5, -49.9, -22.2% and inactive: 10.6, 94.3, 45.4, 12.5%” and the growth ([1]; runs of 1997) was “active: -14.6, -30.7, -39.2, -40.3, -15.7, -50.7, -10.6, -36.9, -23.5, -26.7, -19, -32.6, -32.3, -20.7, -32.4, -39.6, -31.1, 8.68, -33.5, -74.5, -34.9, -25.6, -35.7, -11.6, -29, -20.9, -26.9, -23.3 (2×), -17.4, -13.4, -33.2, -25.9, -33.3, -22, -3.21, -26.2, -21.6, 1.59, -21.4, -21.8, 1.24, -30.9, -3.46, -44.4% and inactive: 21.9%”. The growth ([1]; runs of 1998) was “active: -38.9, -31.7, -27.6, -35, -15.6, -0.554, -31.4, -25.2, -24.1, -45.9, -38.8, -47.4, -7.9, -41.8, -14.4, -29.8, -53.8, -63.3, -22.5, -57.6, -26.6, -3.43, -11, -41, -30.4% and inactive: 16.1%”, the growth ([1]; runs of 1999) was “active: -10.7, -42.6, -36.5, -18.2, -55, -100 (2×), 5.95, -90, -59.8, -67.3, -21.4, -89.8% and inactive: 16.9%” and the growth ([1]; runs of 2000) was “active: 3.05, -100, -58.6, -93.5%”. For the same compound, the growth ([2]; runs of 2006) was “inactive: 38.3%, 36.5%”, the growth ([2]; runs of 2007) was “inactive: 12.4, 24.7, 23.3, 33.8, 10.9, 30.8, 36.1, 35.9, 36.9 (2×), 45.8, 48.6, 18.6, 45.2, 28.3, 34, 27.9, 40.6, 53.4, 39.7, 22.1, 30.4, 42.6, 74.9, 49.5, 43.9, 34.2, 38.4, 24.3, 26.3, 51.8 (2×), 14.2, 28.8, 28.1, 25, 33.7, 31.6% and active: -1.18%, 4.09%, -1.1%” and the growth ([2]; runs of 2008) was “inactive: 42.1, 27.6, 41.5 (2×), 39, 25.5, 24.2, 33.1, 17.1, 36.6, 40.2, 45.5, 48.8, 45.7, 52.6, 24.5, 35.3, 34.7, 37.8, 43.8, 32.9, 19.7 (2×), 25.2, 32.8, 23.8, 24.1, 12.2, 76.4, 29.8, 22.3, 51, 50, 53.6, 40.9, 42.9, 42.8, 57.8, 47.9, 25.3, 27.2, 18.7, 32.5, 11.4, 24.7% and active: 9.09, -0.999, -6.37, -5.92, 2.49, 8.31, 9.64, 4.31, -11.9, 8.51%”. For the same compound, the growth ([2]; runs of 2009) was “inactive: 25.1, 21.2 (2×), 35, 21.5, 19.2 (2×), 23.1 (2×), 34.9, 23.2, 26.6, 30.7 (2×), 36.1, 26.2, 27.8, 30.4 (2×), 18.6 (2×), 24.8 (2×), 26.8, 25.3 (2×), 29.4, 26.3 (2×), 27.1, 30.6, 22, 20.3, 14.1, 11, 45.1, 20.1, 21, 28.3, 16.2, 23.4 (2×), 35.7, 18.4 (2×), 16.5, 27.4, 33, 35.1, 40.1, 40.3, 36.7, 28.9, 29.3, 30.8, 22.7, 15.2, 13.7, 21.6, 20.4, 16.6, 13.4, 20.7, 21.1, 12.4% and active: 8.51, 0.227, -3.91, 6.54, 1.49, -4.75%”, the growth ([2]; runs of 2010) was “inactive: 29.9, 25.9, 30.8, 29.6, 28.1, 18.9, 31.4, 10.8, 14.5, 14.7, 34.5, 27, 30.9 (3×), 30.6 (2×), 32.8, 15 (2×), 31.1, 27.8, 11.8, 19, 19.1, 16.7, 19.6, 18.8, 21.1, 24.2, 26.7, 29.5, 15.5, 14.3, 25.3, 30.1, 12.8, 19.5, 13.1, 21.9, 33.5, 29, 22.9, 29.4, 31.5, 35.4, 34.7, 37.8, 40.4, 23.1, 34.9% and active: 0.116%” and the growth ([2]; runs of 2011) was “inactive: 22.1, 23.4, 25.4, 30, 25.3, 31.8, 19.6 (2×), 24.5, 27, 20.9, 32.5, 26.3, 20.4, 29.2 (3×), 22.7, 26.7, 30.5 (2×), 27.1, 38.3, 36.3, 44.8, 41.7, 42.9, 19.2 (2×), 42, 21.5, 12.8, 19, 19.4, 18, 18.4, 17.4, 17.3, 28, 33.6, 31.4, 25.2, 23.5, 25.1 (2×), 28.3, 31.9, 24.6, 31.2, 23.7, 18.8% and active: 6.44, 6.22, -4.04, 8.97, 9.64%”. The growth ([2]; runs of 2012) was “inactive: 16.5, 13, 13.9, 27.2, 25.5, 33.4, 35.7 (2×), 24.5, 32.1, 25, 22.9, 21.3, 18.6, 27.9, 11.8, 27.7, 19.1, 33.2, 36.6, 41.3, 42.3, 40.2, 33.3 (2×), 14.8, 23.8, 23.1, 31.1, 29.9, 30.8, 25.4, 37.7 (3×), 35.2, 35.3, 44.7 (2×), 37.5, 36.7, 43.7 (2×), 43.2, 52.1, 30.5, 22.2, 34.6, 40, 33.6, 48.3, 41.9, 56.7, 37.8, 40.3, 37.9, 41, 48.2, 49.7, 46.8, 44.4, 46, 45.9, 53.7%”, the growth ([2]; runs of 2013) was “inactive: 19, 12.5, 16, 13.3, 10, 35.2, 38.4, 33.6, 37.3, 33.9, 34.3, 37.6, 45.7 (3×), 40.2 (2×), 42.6, 42.3, 41.4, 48.1, 55.6, 48.3, 44.1 (2×), 48.8, 46.3, 37.8, 46.6, 43, 57.6, 59.9, 50.2, 49.1, 39, 40.1, 30.1, 27.6, 43.1, 41.2, 34.2, 30, 26.9, 33.8, 46.2, 33.7, 33.1, 22.7, 22.5, 33, 34.6, 40.9, 48.9, 41.8, 39.4 (2×), 31.9, 45.8, 38.5, 35, 32.6, 33.5, 30.8, 25.8 (2×), 28, 16.3, 15, 21.5, 24.9, 40.3, 38.3, 16.6, 24.1, 19.9, 28.8, 36.2, 17.9% and active: -0.798%, -2.09%, 4.28%” and the growth ([2]; runs of 2014) was “inactive: 22.3, 34.7, 12, 19.5, 10.7 (2×), 15.9, 29.3 (2×), 18.9 (2×), 47.6, 26.5 (2×), 17.4 (2×), 17.1, 13.3, 37, 22.4, 25.1, 18 (2×), 33.7, 38.4, 26.6, 20.3 (2×), 30.5, 31.5, 29.4 (2×), 33.1, 38.6, 36.5, 40.3, 38.5, 41.5, 42, 36.6, 39.1, 26.2, 24.4, 22.9, 24, 21.3, 24.1, 10.3, 24.8, 12.1 (2×), 18.8, 19, 21.6, 21, 30.3, 26.3, 24.2, 25.4, 25, 18.3, 18.2, 16, 14.8 (2×), 14, 12.4, 16.8% and active: 9.7, 8.86, 4.41, 8.37, 5.64, 6.97, 3.74, 5.56, 9.78, 7.88%”.

— PubChem BioAssay (NCI)
